Test results reported in PubChem BioAssay AID1347120 (National Center for Advancing Translational Sciences (NCATS), 2019).
Screen size: about 390,000 compounds; about 930 (0.24%) were called active. This list was built around the results that the source calls inconclusive (neither active nor inactive); the mix of calls is not that of the screen. Calls follow the shape of the dose curve; as a rule, active = well fitted activation curve with a large enough effect; inconclusive = small, poorly fitted or top-dose-only effect; inactive = no such curve, though single readings can be large or run the other way. Potencies of inconclusive entries are doubtful fits and often do not repeat.

Assay: qHTS for Suppressors of FUS Proteinopathy: Primary screen using FUS-linked yeast assay; also: nearly all actives have a fitted effect of over 55% in size;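 as to growth rescue (activation): plate controls were DMSO vehicle for no effect and reference control for full effect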
Details: S. cerevisiae FUS-expressing, OD600, 24 h; Potency: growth rescue; growth rescue (activation): at 76.6 µM (top of the series)
In short: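 Absorbance at 600 nm, taken 24hr after compound addition, measured rescue of FUS-yeast growth at 30C. Induction used 2% galactose with seeding at OD 0.005. Controls: CP55940 from 92uM final, DMSO only.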
Potency is read from the fitted curve at half-maximal effect; tags tell the direction and shape of the fitted curve.

Compound	Potency	growth rescue (activation)
CC(C)c1ccc(Nc2ncc3c(n2)CCN(C(=O)NC2CCCCC2)C3)cc1	inconclusive: 31.6 µM [activator, single point]	
Cc1ccc(NC(=O)Cn2c(-c3ccc4c(c3)OCO4)cn(-c3ccccc3)c2=O)cc1C		inactive: -0.757%
CCC1CN(C(=O)N2CCC(C(=O)NCc3ccc(OC)cc3OC)CC2)c2cc(C)ccc2O1 (centres undefined)	inconclusive: 11.2 µM [activator, partial curve, poor fit]	
Cc1cc2oc(=O)cc(-c3ccccc3)c2c(C)c1-c1ccc(O)cc1	inconclusive: 44.7 µM [activator, single point]	
Cn1c(SCc2ccc(F)cc2)nc2ccc(C(=O)NCc3ccc(F)cc3)cc21	inconclusive: 12.6 µM [activator, partial curve]	
COc1ccc(OC(F)(F)F)cc1CC1(C)C(=O)Nc2ccc(S(=O)(=O)NC3CCCCC3)cc21 (centres undefined)	active: 31.6 µM	
CCOC(=O)[C@]12CCCC=C1N(Cc1cccc3ccccc13)C(=O)[C@H](CC(=O)NCc1cccc3ccccc13)C2	inconclusive: 6.31 µM [activator, full curve, poor fit]	
COc1ccc(Cl)cc1NC(=O)Cn1ccn(Cc2ccc(C)cc2)c(=O)c1=O		inactive: 6.27%
Cc1ccc(S(=O)(=O)N(C)C[C@H]2OCCCC[C@@H](C)Oc3ccc(NC(=O)Cc4ccccc4)cc3C(=O)N([C@H](C)CO)C[C@@H]2C)cc1	inconclusive: 28.2 µM [activator, single point]	
CCOC(=O)N1CCN(C(=O)CN(c2cccc(Cl)c2C)S(=O)(=O)c2ccc(C)cc2)CC1	inconclusive: 39.8 µM [activator, single point]	
Cc1cc(O)c2c(C)c(CC(=O)N3CCN(C(=O)C4COc5ccccc5O4)CC3)c(=O)oc2c1 (centres undefined)	active: 28.2 µM	
O=C(CC1N=C2c3ccccc3N=C(SCc3ccccc3Cl)N2C1=O)NCc1ccco1 (centres undefined)	inconclusive: 50.1 µM [activator, single point]	
O=C1N[C@@H](Cc2ccccc2)C(=O)N2[C@@H]1C[C@]1(Br)c3ccccc3N(S(=O)(=O)c3ccccc3)[C@H]21	inconclusive: 31.6 µM [activator, single point]	
Nc1nnc2cc(F)ccc2n1	inconclusive: 2.82 µM [activator, full curve]	
O=C(Cc1cccs1)Nc1nnc(-c2ccncc2)s1		inactive: 40%
Cc1cc(C(F)(F)F)n2nc(C(=O)O)c(Cl)c2n1		inactive: -31%
O=C(/C=C/c1ccc(OCCCF)cc1)Nc1ccnc(-c2cccnc2)n1		inactive: -4.56%
CCOC(=O)C1C(C)N=C2SCC(=O)N2C1c1cccc(Br)c1 (centres undefined)	inconclusive: 25.1 µM [activator, single point]	
CC(C)CCOc1ccc(C(=O)Nc2sc3c(c2C#N)CCCCC3)cc1		inactive: 9.34%
CCCCCn1c(CN2CCN(c3cccc(Cl)c3)CC2)nc2c1c(=O)[nH]c(=O)n2C	inconclusive: 10 µM [activator, full curve]	
COc1cccc(NC(=O)C2(C)CCN2C(=O)C2CCCCC2)c1 (centres undefined)	inconclusive: 31.6 µM [activator, single point]	
O=C(Nc1ccc(F)cc1)[C@H](Cc1ccccc1)N1Cc2ccccc2C1=O		inactive: -29.3%

Compound	Potency	growth rescue (activation)
COc1ccc(-c2ccc(C(=O)NCC3CCOCC3)c3occc23)c(C)c1	inconclusive: 25.1 µM [activator, single point]	
Cc1c(Cl)ccc2sc(N3CCN(C(=O)c4ccco4)CC3)nc12	inconclusive: 28.2 µM [activator, single point]	
CN(C)c1ccc(CNc2nc(-c3ccco3)nn2S(=O)(=O)c2ccc3ccccc3c2)cc1	inconclusive: 35.5 µM [activator, partial curve]	
ClCC1CSC(=NC23CC4CC(CC(C4)C2)C3)O1 (centres undefined)	inconclusive: 1 µM [activator, full curve, poor fit]	
Cc1ccc(OCc2ccc(C(=O)NCc3cccnc3)cc2)cc1C	inconclusive: 50.1 µM [activator, single point]	
CCOC(=O)c1c(NC(=O)c2ccccc2)sc2c(O)c(CN(CC)CC)ccc12	inconclusive: 25.1 µM [activator, partial curve, poor fit]	
COc1ccc(N(CC(=O)Nc2ccccc2OC)S(=O)(=O)c2ccc(NC(C)=O)cc2)cc1	inconclusive: 22.4 µM [activator, partial curve, poor fit]	
Cc1ccc(OCC(=O)NCC2(N3CCN(C)CC3)CCCCC2)cc1C		inactive: 24.6%
CC(C)C(=O)N1CCC(Oc2cccnc2)CC1		inactive: -5.33%
CC1CCN(S(=O)(=O)c2ccc3c(c2)N(CC(=O)NC(C)C)C(=O)CS3)CC1		inactive: 5.17%
COC(=O)C[C@@H]1CC[C@@H]2[C@H](COc3ccc(NC(=O)Nc4c(C)noc4C)cc3C(=O)N2C)O1		inactive: -10.8%
CCS(=O)(=O)N1N=C(c2ccc(C)cc2)CC1c1cc2ccc(OC)cc2nc1Cl (centres undefined)	inconclusive: 22.4 µM [activator, partial curve, poor fit]	
COc1ccc(/C=C\c2onc(C)c2S(=O)(=O)N2CCC(C(=O)Nc3ccccc3OC)CC2)cc1	active: 12.6 µM	
Cc1cc(NC(=O)CCSc2nc(-c3ccco3)cc(C(F)(F)F)n2)n(-c2ccccc2)n1		inactive: 28.5%
O=c1c2cc(F)ccc2sn1-c1ccccc1Cl		inactive: -21%
Cc1nc2ccc(NC(=O)c3cc(Cl)ccc3F)cc2c(=O)[nH]1		inactive: -13%
O=C(CSc1nnc(-c2ccccc2)n1Cc1ccco1)Nc1ccc(OCc2ccccc2)cc1	inconclusive: 10 µM [activator, full curve, poor fit]	
COc1ccc(/C=C2\CCc3ccccc3C2=O)cc1Cn1cccn1	inconclusive: 44.7 µM [activator, partial curve, poor fit]	
NC(c1ccccc1)c1csc(NC(=O)Nc2ccccc2Oc2ccccc2)n1 (centres undefined)	inconclusive: 39.8 µM [activator, partial curve, poor fit]	
COc1ccc(C(=O)/C=C/Nc2c(C)n(C)n(-c3ccccc3)c2=O)c(OC)c1	inconclusive: 50.1 µM [activator, single point]	
COC(=O)c1ccccc1NC(=O)C1CC(=O)N(c2ccc(C)cc2)C1 (centres undefined)		inactive: 3.55%
Cc1ccc2nc(N3C(=O)C(O)=C(C(=O)c4ccco4)C3c3ccc(C)o3)sc2c1 (centres undefined)	inconclusive: 25.1 µM [activator, single point]	

Compound	Potency	growth rescue (activation)
Cc1cc(-n2c(C)cc(C(=O)COc3ccc(F)c(F)c3)c2C)no1	inconclusive: 22.4 µM [activator, partial curve, poor fit]	
COC(=O)C1=CN(c2ccc(N3CCOCC3)cc2)C(N)=C(C#N)C1c1ccc(-c2ccccc2)cc1 (centres undefined)	inconclusive: 7.08 µM [activator, full curve]	
CCCCn1c(N)c(N(CCC(C)C)C(=O)COC(=O)c2cccnc2SC)c(=O)[nH]c1=O	inconclusive: 39.8 µM [activator, single point]	
Cc1ccc(OCC(=O)N2CCN(c3nnc(-c4ccccc4)c4ccccc34)CC2)cc1	inconclusive: 39.8 µM [activator, single point]	
COc1ccccc1/C=C/C(=O)N1CCN(S(=O)(=O)c2cccs2)CC1	inconclusive: 44.7 µM [activator, single point]	
COC(=O)c1ccc(NC(=O)c2c(NCc3ccc(C)o3)sc3c2CCCC3)cc1	inconclusive: 44.7 µM [activator, single point]	
O=S(=O)(c1cc2ccccc2s1)n1c(CN2CCOCC2)nc2ccccc21		inactive: 12.8%
Cc1ccc(CN2CC(C(=O)Nc3ccc(S(=O)(=O)N4CCCCC4)cc3)CC2=O)cc1 (centres undefined)	inconclusive: 35.5 µM [activator, single point]	
CC(C)c1onc(C(=O)N2CCN(C(c3ccccc3)c3ccccc3)CC2)c1[N+](=O)[O-]	inconclusive: 12.6 µM [activator, partial curve, poor fit]	
C=CC[C@@H](CC(=O)N(CCO)Cc1ccccc1)C(=O)N[C@H](COC(=O)[C@@H](CC=C)Cc1ccc(F)cc1)c1ccccc1	inconclusive: 25.1 µM [activator, single point]	
CC(C)(C)c1ccc(C(=O)NCc2nnc(SCC(=O)NCC3CCCO3)o2)cc1 (centres undefined)		inactive: 28.7%
CCN(CC)S(=O)(=O)c1ccc(C(=O)Nc2nnc(NC(=S)Nc3ccccc3)s2)cc1	inconclusive: 6.31 µM [activator, full curve]	
CCc1cccc(C)c1NC(=O)CSc1nc(-c2ccccc2F)nc2nc[nH]c12	inconclusive: 17.8 µM [activator, partial curve, poor fit]	
COc1ccccc1Nc1nc(Cl)nc(NC(C)(C)C)n1		inactive: 11.9%
Cc1ccccc1/C=C1\OC(=O)c2ccccc21		inactive: 18.6%
COc1ccc(Cl)cc1NC(=O)CN(C)C(=O)c1n[nH]c2ccccc12		inactive: 18.9%
C[C@H]1[C@@H](NCc2ccccc2)CC[C@@]23CCCN2C(=O)CCC[C@@H]13		inactive: 21.4%
O=C(Nc1cccc(Cl)c1)c1cc(S(=O)(=O)NCCc2ccc(Cl)cc2)ccc1F	inconclusive: 17.8 µM [activator, partial curve, poor fit]	
c1ccc2c(c1)ccc1nnc(-c3ccc4c(c3)OCO4)n12		inactive: -8.93%
COc1ccc(S[C@]2(C(=O)N3CCN(C(C)=O)CC3)CC(=O)N(C(=O)/C=C/c3ccccc3)[C@@H]2c2ccc(OC)cc2)cc1	inconclusive: 12.6 µM [activator, partial curve, poor fit]	
